The text below walks through data of paper PMC4336329 (PLoS ONE, 2015).

About 2,200 (0.71%) of roughly 310,000 compounds showed an effect of 50% or more. Effects have a minus sign here. The list shows a part of the results.

Sequence of human ether-à-go-go-related gene (hERG) potassium channel (Q12809 whole entry, looked up): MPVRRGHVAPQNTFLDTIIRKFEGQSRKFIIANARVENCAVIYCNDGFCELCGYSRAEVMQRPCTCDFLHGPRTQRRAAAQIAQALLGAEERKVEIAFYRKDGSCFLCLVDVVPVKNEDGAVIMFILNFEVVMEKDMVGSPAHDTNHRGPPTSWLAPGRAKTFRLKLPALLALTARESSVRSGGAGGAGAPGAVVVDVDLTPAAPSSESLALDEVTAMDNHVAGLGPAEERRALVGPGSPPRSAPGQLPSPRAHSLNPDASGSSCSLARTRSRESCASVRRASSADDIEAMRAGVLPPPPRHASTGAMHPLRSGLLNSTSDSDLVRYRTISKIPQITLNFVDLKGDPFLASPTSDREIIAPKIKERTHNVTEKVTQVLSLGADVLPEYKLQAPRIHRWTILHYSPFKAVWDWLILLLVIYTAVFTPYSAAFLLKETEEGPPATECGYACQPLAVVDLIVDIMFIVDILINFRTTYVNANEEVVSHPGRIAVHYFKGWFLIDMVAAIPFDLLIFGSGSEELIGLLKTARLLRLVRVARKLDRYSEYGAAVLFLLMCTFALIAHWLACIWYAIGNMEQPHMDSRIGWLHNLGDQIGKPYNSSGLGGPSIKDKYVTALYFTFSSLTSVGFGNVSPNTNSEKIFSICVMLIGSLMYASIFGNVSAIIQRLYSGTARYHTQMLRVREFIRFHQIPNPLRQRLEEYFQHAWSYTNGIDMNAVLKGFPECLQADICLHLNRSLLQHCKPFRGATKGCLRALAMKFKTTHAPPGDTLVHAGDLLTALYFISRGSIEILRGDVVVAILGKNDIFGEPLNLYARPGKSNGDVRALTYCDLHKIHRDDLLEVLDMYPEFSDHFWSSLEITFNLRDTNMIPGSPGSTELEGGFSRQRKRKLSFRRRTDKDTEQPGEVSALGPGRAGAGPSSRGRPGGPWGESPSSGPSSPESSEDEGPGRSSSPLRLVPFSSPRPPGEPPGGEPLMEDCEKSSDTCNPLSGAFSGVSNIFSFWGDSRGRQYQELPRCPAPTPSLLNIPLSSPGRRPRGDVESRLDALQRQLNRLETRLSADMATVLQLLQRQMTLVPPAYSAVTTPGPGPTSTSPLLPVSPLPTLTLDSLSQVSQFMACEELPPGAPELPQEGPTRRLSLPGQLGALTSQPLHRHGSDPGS

The experiment has as its target human ether-à-go-go-related gene (hERG) potassium channel (human, UniProt Q12809). Nature of the experiment: primary screen, population patch clamp on CHO cells stably expressing hERG.
In the case of `Nc1c(C(=O)NCc2ccccc2)nnn1Cc1cccc(Cl)c1`, the “hERG current change (%, negative = inhibition) at 1uM” value amounted to 10.7%.
The result for `O=C(c1ccc(Cn2c(=S)[nH]c3cc4c(cc3c2=O)OCO4)cc1)N1CCN(c2ncccn2)CC1` reads 5.57%; that for `Cc1cc(=O)oc2cc3c(cc12)CCCN3`, 15.7%.
The result for `C=CCc1ccccc1OCCNCCCOC.O=C(O)C(=O)O` reads 0.365%; that for `COc1ccc(-c2ccc(F)cc2)cc1[C@H]1[C@H]2C=CC[C@@H](C)[C@@H]2C(=O)N1Cc1ccccc1`, 13%.
As to `Oc1ccc(C[C@@H]2CNCCN2CCCCC2CCCCC2)cc1`, the “hERG current change (%, negative = inhibition) at 1uM” value was 10.4%.
`O=C(CN1C(=O)S/C(=C\c2ccc(Cl)cc2)C1=O)NNC(=O)c1ccccc1O`: the “hERG current change (%, negative = inhibition) at 1uM” value was determined as 3.99%.
To `CN(C(=O)c1cc2c(=O)n3ccccc3nc2s1)C1CCCCC1` belongs 10.1%.
In the case of `O=C(Nc1ccccc1C(=O)N1CCOCC1)c1ccc(CSc2ccccc2)cc1`, the “hERG current change (%, negative = inhibition) at 1uM” value worked out at 4.5%.
For `C#CCOCCOCCOCCNc1nc(N2CCN(C(=O)CCCCCCCCCCNC(=O)[C@H](CO)n3cc(CCCSC)nn3)CC2)nc(N2CCN(C(=O)CCCCCCCCCCNC(=O)[C@H](CCCCN)n3cc(C[C@@H](C)CC)nn3)CC2)n1`, the “hERG current change (%, negative = inhibition) at 1uM” value came to 6.98%.
The result for `O=S(=O)(c1ccc(F)cc1)N1CCCC1` reads 11.4%; that for `CCC(Sc1nc(C)cc(=O)[nH]1)C(=O)Nc1ccc(Cl)cn1` (centres unmarked), 19.4%; that for `Clc1ccc(-c2cn3ccccc3n2)cc1`, 11.4%.
As to `C=CCNC(=S)N/N=C/c1ccc(-c2ccc(OC)cc2)o1`, the “hERG current change (%, negative = inhibition) at 1uM” value is recorded as 9.61%.
To `COc1ccccc1NC(=O)CN1CCC(c2nc3ccccc3[nH]2)CC1` belongs -9.36%; to `C=CCn1c(SC2CCOC2=O)nc2sc(C)c(C)c2c1=O` (centres unmarked), 6.32%.
The result for `COC(=O)Cc1cc(=O)n2[nH]c(C)cc2n1` reads 12.2%.
The result for `CCc1nnc(NC(=O)Cn2c(=O)oc3ccccc32)s1` reads 3.26%; that for `CC1(C)CC(=O)C=C(Nc2ccc(F)cc2)C1`, 2.97%.
With `Cc1ccc(NC(=O)C2(S(=O)(=O)c3ccc(Cl)cc3)CC2)cc1`, the “hERG current change (%, negative = inhibition) at 1uM” value is 4.56%.
The result for `COC(=O)[C@@H]1Cc2c([nH]c3ccccc23)C(C)(C)N1C(=O)CCl` reads 6.4%.
For the compound `C=C(C)CNC(=S)N1CCN(C(c2ccccc2)c2ccccc2)CC1`, the “hERG current change (%, negative = inhibition) at 1uM” value is 9.41%.
With `Cn1cc(C(=O)N2CCc3ccccc3C2)c(=O)c2cc(S(=O)(=O)N3CCOCC3)ccc21`, the “hERG current change (%, negative = inhibition) at 1uM” value is reported as 7.33%.
For the compound `COc1ccc(/C=C2\N=C(SC)NC2=O)cc1`, the “hERG current change (%, negative = inhibition) at 1uM” value amounted to 11.3%.
The result for `O=c1[nH]c2ccccc2c(O)c1SCCO` reads 9.45%; that for `NC(=O)C1CCN(C(=O)/C(=C/c2ccccc2)NC(=O)c2ccccc2)CC1`, 14.9%; that for `COc1ccc(/C=C2\CCCCC2=O)cc1`, 3.66%.
The result for `COC(=O)C1CCN(c2cc(=O)n(-c3ccccc3Cl)c(=O)[nH]2)CC1` reads 9.23%; that for `COc1cccc(CN(C)Cc2nc(C3CC3)no2)c1`, 15.2%; that for `Cc1c(S(=O)(=O)NCc2ccccc2)c(=O)n(C)c(=O)n1C`, 13.5%.
`COc1ccc(NC(=O)C(c2ccccc2)N(C)C(=O)c2cnccn2)cc1` (centres unmarked): the “hERG current change (%, negative = inhibition) at 1uM” value came to 11.4%.
The result for `c1coc(-c2ccnc(-c3ccncc3)n2)c1` reads 12.7%; that for `Cc1cccc(C)c1NC(=O)C1CSC2(C)CCC(=O)N12` (centres unmarked), 6.49%; that for `CCCCC(=O)Nc1ccc(C(=O)N2CCN(c3ccccc3OC)CC2)cc1`, 4.8%.
To `Cl.O=C(CN1CCN(Cc2ccccc2)CC1)Nc1ccc2c(c1)CCC2` belongs -5.24%; to `CC1(CCc2ccc3c(c2)OCO3)NC(=O)c2ccccc2N1` (centres unmarked), 0.0141%; to `C=CCSC(CC)(CC)C(N)=O`, 9.62%.
To `CCc1cc2c(SCC#N)ncnc2s1` belongs 9.82%.
On to `CCOC1=NC(C(=O)O)c2ccccc2/C(=C(/C)Cl)N1` (centres unmarked), for which the “hERG current change (%, negative = inhibition) at 1uM” value was 7.64%.
The result for `CCCCCCCCC/C(=N\O)c1ccccn1` reads 7.06%; that for `CCNc1nc(NC(C)C)nc(OCC)n1`, -0.429%; that for `O=C(NC(=C(Cl)Cl)S(=O)(=O)c1ccc(Cl)cc1)c1ccccc1`, 12.8%.
In the case of `Cc1cc(-c2ccccc2C(=O)O)on1`, the “hERG current change (%, negative = inhibition) at 1uM” value amounted to 12.2%.
To `O=C(Nc1ccc2ccccc2c1)c1cccc([N+](=O)[O-])c1` belongs 18.6%; to `CCC(=O)NS(=O)(=O)c1ccc(N=NN2CCCCC2)cc1`, 10.2%; to `Cc1cc(NC(=O)c2cccc(C(=O)Nc3cc(C)on3)n2)no1`, 12.4%.
In the case of `Cn1c(-c2ccc(Br)cc2)cnc1NCc1ccc(C#N)cc1.O=C(O)C(=O)O`, the “hERG current change (%, negative = inhibition) at 1uM” value is -77.2%.
The result for `Cc1ccnc(NC(=O)CCCOc2ccc(Cl)cc2C)c1` reads 15.8%; that for `O=Cc1cnc2ccccc2c1-c1ccccc1`, 8.4%.
The result for `CN1CCN(C2=Nc3c(Cl)cc(Cl)c4cccc2c34)CC1` reads 5.39%; that for `CC(OC(=O)c1cccc(N2C(=O)c3ccccc3C2=O)c1)C(=O)Nc1ccc(N(C)C)cc1` (centres unmarked), 14.4%.
The result for `COCCOc1cc(NC(=O)c2cccc(OC)c2)c(Cl)cc1Cl` reads 11.4%; that for `CC1=NOC2(C1)/C(=N/O)CCC/C2=N\O` (centres unmarked), 7.43%.
As for `COc1cc2ccccc2cc1C(=O)N1CCN(c2ccccc2O)CC1`, the “hERG current change (%, negative = inhibition) at 1uM” value is -7.84%.
The result for `CCCCCOc1ccc(NS(C)(=O)=O)cc1` reads 0.876%; that for `CCn1cc(C(=O)OCC(=O)Nc2ccc(S(=O)(=O)N3CCCC3)cc2)c(=O)c2ccc(C)nc21`, 16.4%; that for `CC(C)(C)NC(=O)COC(=O)c1ccc(Cl)nc1`, 3.28%.
For `Cc1oc(-c2ccccc2F)nc1CSCC(=O)NC1CCC(C)CC1` (centres unmarked), the “hERG current change (%, negative = inhibition) at 1uM” value is on record as 18.4%.
The result for `CC1=C(C(=O)OCC2CCCO2)C(c2ccccc2)C2=C(CCCC2=O)N1` (centres unmarked) reads 9.48%.
